{"sequences": {"note": "Amino acid sequences for entries named in this document (tags omitted).", "UniProt P23696": "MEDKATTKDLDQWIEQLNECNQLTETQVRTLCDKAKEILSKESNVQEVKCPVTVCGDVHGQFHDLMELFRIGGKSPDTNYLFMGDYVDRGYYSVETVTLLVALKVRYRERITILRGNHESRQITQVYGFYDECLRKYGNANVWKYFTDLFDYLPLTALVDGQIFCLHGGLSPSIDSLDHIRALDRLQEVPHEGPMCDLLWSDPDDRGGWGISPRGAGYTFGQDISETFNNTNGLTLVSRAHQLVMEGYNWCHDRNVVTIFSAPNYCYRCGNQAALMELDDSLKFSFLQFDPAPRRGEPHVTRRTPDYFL"}, "source": "paper PMC3784504", "molecules": {"B1": {"name": "MeiS332 (protein, UniProt Q24141 1-401)", "chain": "MGSKVEQQYKLLNAELMDQVQKQRLEIGEYRKRVISLEREIMDIREEHVLQNHRQRMENISIVRSLMLSLNVDSDSLAVRQEPAPAAQINRPSGPRRSSREICKDMRRTCALARTTRPISPRRSSSVTSTVSSTSRRSSAEVQSEVVTTRIPEDRRANKPTPPPRRPAELVFDEDDSDDDFDEAVSPVEETQTEQNEENNRLFSIIEENGSEGESTDSSSSCEAIYCDTTFESSPPNAQVTVTPSGRALREVDTNIPVAVSLSRGKETGKGSWLAISVAVEDSPQEPSIQCPRLAVTRPSQSSGIFPDVNGLTPRRSLFNGIGKMAGSTSTPKSFLVEEMPSIRTRSRTAANKKSENTDMSSSFCNNSARPSRSCRPTSLVEPSLKNKLRNGSKGKAKAKK"}, "B2": {"name": "histone chaperone NAP1 (protein, UniProt Q9W1G7 1-370)", "chain": "MDAPAEGHVDPESCNEIEDEKSGSDCQSMPAYMNSVMRRQYLQQMVKMLPAPVQNRIVFLKNLQLQHLNIEAQFFEDVYKLEQKYQVQYQPLFDKRREIIEGKVDPAEEKPQWKEPESSTDNEADAEHFREALSSLKSIPKDAKGIPGFWLTVFRNTAIMSEMVQPHDEPAIRKLIDISIKYDNGHSYTLEFHFDKNEYFSNSVLTKQYVLKSTVDPNDPFAFEGPEIYKCTGCTINWEKKMNLTVKTIRKKQKHKERGAVRTIVKQVPTDSFFNFFSPPEVPSDQEEVDDDSQQILATDFEIGHFLRARIIPKAVLYYTGDIVDDEDDEDEEEYDENEEDEYDDDDAPPPKGPKSAGIKKQSPNDCPNQ"}}, "key": {"[1]": {"target": "T1, cohesin subunit SMC1 (Drosophila (endogenous in embryos and S2 cells)) (UniProt Q9VCD8)", "T1 sequence": "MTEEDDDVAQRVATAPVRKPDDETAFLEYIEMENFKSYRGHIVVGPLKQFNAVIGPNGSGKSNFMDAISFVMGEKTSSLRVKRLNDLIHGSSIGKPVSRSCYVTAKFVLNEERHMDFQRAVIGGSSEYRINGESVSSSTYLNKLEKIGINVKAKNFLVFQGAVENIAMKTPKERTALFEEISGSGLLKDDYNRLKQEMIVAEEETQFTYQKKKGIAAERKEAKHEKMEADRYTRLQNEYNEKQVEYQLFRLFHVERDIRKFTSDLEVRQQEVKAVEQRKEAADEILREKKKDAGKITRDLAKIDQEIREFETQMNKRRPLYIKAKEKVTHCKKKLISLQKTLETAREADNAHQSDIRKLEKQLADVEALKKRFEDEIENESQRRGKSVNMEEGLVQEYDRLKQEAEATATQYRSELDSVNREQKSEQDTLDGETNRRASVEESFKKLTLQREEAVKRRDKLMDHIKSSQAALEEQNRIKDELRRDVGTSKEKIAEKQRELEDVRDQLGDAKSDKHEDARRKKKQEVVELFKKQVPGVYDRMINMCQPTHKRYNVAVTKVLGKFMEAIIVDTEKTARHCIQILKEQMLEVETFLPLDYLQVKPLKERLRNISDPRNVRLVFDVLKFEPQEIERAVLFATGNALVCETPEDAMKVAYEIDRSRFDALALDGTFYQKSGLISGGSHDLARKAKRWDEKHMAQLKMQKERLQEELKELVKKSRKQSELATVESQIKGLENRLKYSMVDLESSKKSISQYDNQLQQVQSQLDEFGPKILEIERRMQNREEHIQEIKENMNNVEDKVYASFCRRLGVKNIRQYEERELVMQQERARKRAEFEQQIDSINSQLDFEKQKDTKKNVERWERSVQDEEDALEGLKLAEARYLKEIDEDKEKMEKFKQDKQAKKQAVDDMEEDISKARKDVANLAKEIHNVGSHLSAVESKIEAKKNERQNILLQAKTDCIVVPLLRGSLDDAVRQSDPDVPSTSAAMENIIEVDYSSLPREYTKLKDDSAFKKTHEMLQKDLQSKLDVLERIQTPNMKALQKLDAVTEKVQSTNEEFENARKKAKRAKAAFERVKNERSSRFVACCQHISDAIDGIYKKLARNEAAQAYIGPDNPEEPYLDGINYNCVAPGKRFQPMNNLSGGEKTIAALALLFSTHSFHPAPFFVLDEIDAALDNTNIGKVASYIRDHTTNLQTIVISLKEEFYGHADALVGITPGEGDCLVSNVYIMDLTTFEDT", "experiment": "co-IP; IP of SA or SMC1 from S2 cell extracts; cells mock-treated or depleted of NAP1 and/or PP2A by RNAi, with or without colchicine; immunoblot"}, "[2]": {"target": "protein phosphatase 2A (PP2A) catalytic subunit (Drosophila (endogenous in embryos and S2 cells)) (UniProt P23696)", "experiment": "condition: only high stringency washes (600 mM KCl); co-IP; IP of SA, NAP1 or PP2A from Drosophila embryo nuclear extract; washes with 600 mM KCl, 0.1% NP40; immunoblot; mock IP with pre-immune serum"}, "[3]": {"target": "protein phosphatase 2A (PP2A) catalytic subunit (Drosophila (endogenous in embryos and S2 cells)) (UniProt P23696)", "experiment": "co-IP; IP of SA or PP2A from Drosophila embryo nuclear extract; lower stringency washes, 200 mM KCl, 0.1% NP40; immunoblot"}, "[4]": {"target": "T1, cohesin subunit SMC1 (Drosophila (endogenous in embryos and S2 cells))", "experiment": "co-IP; IP of SA or SMC1 from S2 cell extracts; cells mock-treated or depleted of NAP1 and/or PP2A by RNAi, with or without colchicine; immunoblot", "remark": "listed apart in the source"}}, "note": "Read-outs that look alike come from different tables or passages of the source. These are yes or no findings as the source states them, for the method shown. In cells and extracts the contact can be indirect. Some entries that bind do so weakly or less than the wild type. For some of these results: Where a sequence is shown, tags or fusion partners need not be part of it."}
{"molecule": "protein phosphatase 2A (PP2A) catalytic subunit (from UniProt P23696 1-309) (enzyme)", "values": [{"measurement": "binding", "setting": "[1]", "result": "binds"}]}
{"molecule": "B1", "values": [{"measurement": "binding", "setting": "[2]", "result": "no binding"}, {"measurement": "binding", "setting": "[3]", "result": "binds"}]}
{"molecule": "B2", "values": [{"measurement": "binding", "setting": "[4]", "result": "binds"}]}
